In the supplement of paper PMC3334620:
In all, about 33,000 sequences were measured (“E-score (-0.5 to 0.5)”: median about -0.041, highest 2% from about 0.37 on). The list shows a part of the results.

target: T1, Ecm22 (UniProt Q05958); assay: PBM E-score (8-mer binding enrichment) (E-score (-0.5 to 0.5)); higher = stronger / more preferred TF binding; most listed sequences are background and not binding sites; conditions: protein concentration: 200 nM; construct: GST-full length
T1 sequence: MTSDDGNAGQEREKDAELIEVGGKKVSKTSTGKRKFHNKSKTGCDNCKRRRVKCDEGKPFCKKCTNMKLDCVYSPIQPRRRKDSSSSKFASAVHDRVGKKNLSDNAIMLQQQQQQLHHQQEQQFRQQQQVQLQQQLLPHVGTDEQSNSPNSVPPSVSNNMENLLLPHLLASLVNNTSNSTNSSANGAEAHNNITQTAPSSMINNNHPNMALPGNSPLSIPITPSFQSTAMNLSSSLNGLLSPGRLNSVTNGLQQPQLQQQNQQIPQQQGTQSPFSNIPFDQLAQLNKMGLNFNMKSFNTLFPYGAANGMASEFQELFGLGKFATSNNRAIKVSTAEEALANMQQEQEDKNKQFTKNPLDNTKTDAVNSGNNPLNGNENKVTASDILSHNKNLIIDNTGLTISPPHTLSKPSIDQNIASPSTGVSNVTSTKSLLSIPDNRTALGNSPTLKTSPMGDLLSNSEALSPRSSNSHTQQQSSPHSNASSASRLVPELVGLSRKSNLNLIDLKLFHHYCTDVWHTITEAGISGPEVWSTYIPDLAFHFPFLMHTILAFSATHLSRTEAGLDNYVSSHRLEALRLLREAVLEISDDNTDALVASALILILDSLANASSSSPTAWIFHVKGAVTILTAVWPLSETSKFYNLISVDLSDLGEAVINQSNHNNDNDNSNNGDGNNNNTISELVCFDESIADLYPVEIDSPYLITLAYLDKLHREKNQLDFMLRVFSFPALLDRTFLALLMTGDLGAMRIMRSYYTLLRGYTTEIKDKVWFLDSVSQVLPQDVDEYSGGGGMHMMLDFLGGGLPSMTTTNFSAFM
In short: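 GST-tagged yeast TFs (full-length or DNA-binding domain) were made by PURExpress in vitro transcription/translation and applied at about 100-200 nM to universal all-10-mer Agilent arrays. The arrays were made double-stranded by primer extension, on fresh or once-stripped slides. Bound protein was detected with fluorescent anti-GST, and scans were normalised with masliner. Each ungapped eight-base word, pooled with its reverse complement, received an E-score (modified Wilcoxon-Mann-Whitney statistic) from the Universal PBM Analysis Suite.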

Going from AACGACAC to ATCCGGAA, the “PBM E-score” value falls from 0.421 to 0.0357.

Going from ATAGTCCC to CTTGTTTC, the “PBM E-score” value rises from -0.286 to 0.0458.

First: GATGAACA
Second: ATCTTCAT
The “PBM E-score” value of the first is lower: -0.0467 for the first, 0.109 for the second.

First: CCTCGTGC
Second: CCTCGGAA
The “PBM E-score” value of the first is lower: 0.0902 for the first, 0.348 for the second.

Compared with GCTTAGCA, ACTCATAG is lower in “PBM E-score” value: -0.129 for the first, -0.141 for the second.

Going from CAAGCGAC to ATCAGAGC, the “PBM E-score” value falls from 0.147 to 0.0133.

Compared with CTAGCCCC, ATACGTTA is higher in “PBM E-score” value: -0.206 for the first, 0.276 for the second.

Compared with AACGATAG, GCACTAGA is lower in “PBM E-score” value: 0.345 for the first, -0.0812 for the second.

First: AGTCCAAT
Second: TCAACACA
The “PBM E-score” value of the first is lower: -0.245 for the first, -0.0213 for the second.

Going from CTCAATAA to GTAGTCCA, the “PBM E-score” value rises from -0.248 to -0.226.

First: CTCCTCAC
Second: TACCGTAA
The “PBM E-score” value of the first is lower: -0.071 for the first, 0.238 for the second.

First: GCGCGGCA
Second: GCTATCGA
The “PBM E-score” value of the first is higher: 0.122 for the first, 0.0437 for the second.

Compared with AGGGCACG, AAAGGGTC is lower in “PBM E-score” value: 0.0421 for the first, -0.109 for the second.

First: TAGGTGAA
Second: ATGTGTTA
The “PBM E-score” value of the first is lower: 0.052 for the first, 0.166 for the second.

Going from CTCCCCAG to TCTCTTCA, the “PBM E-score” value rises from -0.237 to -0.0952.

First: AAAGCCTA
Second: AGTCTCGC
The “PBM E-score” value of the first is lower: -0.208 for the first, 0.185 for the second.

Compared with CTAGGGCA, AACGGCAA is higher in “PBM E-score” value: -0.339 for the first, 0.0983 for the second.

First: CGCGTAAA
Second: GCGACCAA
The “PBM E-score” value of the first is higher: 0.264 for the first, 0.15 for the second.

Going from CATTCATA to ACCCTAAG, the “PBM E-score” value falls from -0.0427 to -0.2.

Compared with ATGCATAA, CCTGCACA is lower in “PBM E-score” value: -0.163 for the first, -0.294 for the second.

Going from CCCGGTAC to CTTGGTGC, the “PBM E-score” value falls from 0.078 to -0.16.

First: GAATCCTA
Second: ATGCATCC
The “PBM E-score” value of the first is higher: -0.0686 for the first, -0.121 for the second.

Compared with CTTCCGCA, CGAGTGGC is higher in “PBM E-score” value: 0.0387 for the first, 0.212 for the second.

Going from ACATATCA to CTGGAAAG, the “PBM E-score” value falls from 0.0352 to -0.292.

Compared with CTATGGAA, ACCTTGGC is lower in “PBM E-score” value: -0.102 for the first, -0.206 for the second.

Going from CAAACATG to CTTGGTTC, the “PBM E-score” value rises from -0.135 to 0.131.

First: TGCGTCCA
Second: AGTTCGTA
The “PBM E-score” value of the first is lower: -0.162 for the first, 0.449 for the second.

Going from AGCCAAAA to ACGTCGTC, the “PBM E-score” value rises from -0.113 to 0.175.

First: CACAATAC
Second: CCTCTCAC
The “PBM E-score” value of the first is higher: -0.0903 for the first, -0.211 for the second.

First: CGGCATAA
Second: GACTATGA
The “PBM E-score” value of the first is higher: 0.09 for the first, -0.0913 for the second.

Compared with CCCAAGTC, CACAGAAA is higher in “PBM E-score” value: -0.202 for the first, -0.00434 for the second.

First: CTGCCTCC
Second: CTCAGGGC
The “PBM E-score” value of the first is lower: -0.173 for the first, -0.131 for the second.

Compared with GAAACGCA, TTAACCAA is lower in “PBM E-score” value: 0.0852 for the first, -0.142 for the second.

First: GAATACCA
Second: GTAGGAAC
The “PBM E-score” value of the first is lower: -0.0271 for the first, 0.249 for the second.

Going from AAGCCGGG to TCCCTACA, the “PBM E-score” value falls from 0.0595 to -0.0238.

First: AAAGGGGC
Second: CGTTGTGA
The “PBM E-score” value of the first is lower: -0.135 for the first, 0.0758 for the second.

Going from CCTGATCG to GAGCTAAA, the “PBM E-score” value falls from 0.0603 to 0.0186.

Compared with TCCTGCCA, AAATTGAT is higher in “PBM E-score” value: -0.367 for the first, -0.00484 for the second.

Compared with ATTTGTGA, ATGGAAAA is higher in “PBM E-score” value: -0.0689 for the first, -0.0284 for the second.

Going from ACCTCCAA to ACGGGTCA, the “PBM E-score” value rises from -0.234 to -0.0637.

Going from AATAACAC to GACCAAGC, the “PBM E-score” value falls from 0.0353 to -0.217.

First: CCACCAAG
Second: AAACCCAG
The “PBM E-score” value of the first is lower: -0.266 for the first, -0.102 for the second.

First: ACATCAAC
Second: GGACAAAC
The “PBM E-score” value of the first is higher: -0.00596 for the first, -0.0322 for the second.
